Out of some 44,000 compounds screened, about 340 (0.77%) were called active. Inconclusive results (about 5%) are left out. Calls come from the whole dose curve; as a rule, active = well fitted inhibition curve with a large enough effect; inconclusive = small, poorly fitted or top-dose-only effect; inactive = flat fitted curve, though single readings scatter. Some of the results follow.
Assay: Acumen qHTS Assay for Inhibitors of the mTORC1 Signaling Pathway in MEF (Tsc2-/-, p53-/-) Cells: Sytravon;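 note: plate controls were DMSO for no effect and rapamycin for full effect; nearly all actives have a fitted effect of over 50% in size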
Conditions: phospho-rpS6 immunofluorescence/PI, 24 h; series mostly up to 38.3 µM; activity change, negative = inhibition: at the top concentration
Method in brief: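 Tsc2-/-, p53-/- mouse embryonic fibroblasts (empty-vector line) exposed to compound 24 hrs at 37 C, fixed, immunostained for phospho-rpS6 and counterstained with propidium iodide. Acumen laser scanning gives % positive cells from Alexa 488/PI ratio, thresholded using 7.5 nM rapamycin; PI count gives viability.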

Activity change, negative = inhibition, inactive:
COc1ccc(OC)c(N(C)S(=O)(=O)c2ccc3c(c2)NC(=O)CC(=O)N3)c1 -1.25%
COc1ccc(C)cc1NC1(c2ccccc2)C(=O)c2ccccc2C1=O 5.01%
COc1ccc2nc(N3CCN(C(=O)CS(=O)(=O)c4ccc(C)cc4)CC3)sc2c1 -6.57%
Cc1ccccc1NC(=O)c1sc2nc3n(c(=O)c2c1C)N=C(c1ccccc1)CS3 -12.2%
CN(C)c1ccc(NC(=O)CC(NCc2cccnc2)C(=O)O)cc1 (configuration not stated) -5.27%
COc1ccc(-n2ccn3c(CC(C)(C)CC(=O)O)nnc3c2=O)cc1 3.81%
COc1cccc(CNc2sc3c(c2C(=O)Nc2ccc(OC)cc2OC)CCC3)c1 -4.27%
Cc1ccc(NC(=O)CCCn2c(=O)c3cccn3c3cccnc32)c(C)c1 -2.55%
CCC(Sc1nc2nccnc2c(=O)n1Cc1ccc(Cl)cc1)C(=O)NC1CCCCC1 (configuration not stated) 10.2%
O=c1c(-c2cc(-c3ccccc3)nc3c2COc2ccc(Cl)cc2-3)coc2ccccc12 -16.8%
Cc1ccc(-c2cnc(C3CC3)o2)cc1S(=O)(=O)Nc1ccc(F)cc1Cl -0.627%
CC(C)CNC(=O)C(=O)Nc1c2c(nn1-c1ccc(Cl)cc1)CSC2 -12.7%
CC(=O)c1ccc(NC(=O)CSc2nccn2C2CCCC2)cc1 -3.91%
Cc1cccc(N2CCN(c3ccc4cc(S(=O)(=O)N5CCC(C)CC5)ccc4n3)CC2C)c1 (configuration not stated) 3.17%
COc1ccc(S(=O)(=O)NC(C)(C)CO)cc1-c1nnc2c3ccccc3c(C)nn12 4.1%
O=c1c(N2CCN(c3ccc(F)cc3)CC2)csc2ccc(F)cc12 2.78%
CCOc1ccc(NC(=O)CSc2nc3ccccc3nc2N2CCOCC2)cc1 0.127%
COc1ccc(CNC(=O)c2cc3cccc4c3n2CC(C)S4)cc1 (configuration not stated) 1.57%
CCCn1c(=O)c2sccc2n2c(CCCC(=O)N3CCN(c4ccc(OC)cc4)CC3)nnc12 -2.28%
CC(C)CC(=O)Nc1cccc(-c2cn3cccnc3n2)c1 0.107%
Cc1nn(-c2cccc(Cl)c2)c2nc(-c3cccnc3)cc(C(F)(F)F)c12 1.8%
CCOCCCNC(=O)CN1C(=O)COc2ccc(S(=O)(=O)N3CCOCC3)cc21 -15%
COc1ccc(-c2cc(C(F)(F)F)nc(SCCC(=O)Nc3ccc(F)cc3F)n2)cc1 -2.75%
O=C(CSc1ccc2nc(-c3ccccc3)cn2n1)Nc1ccccc1 -1.76%
O=C(Nc1ccc(F)cc1F)c1ccc(-n2cnc3cccnc32)cc1 -5.56%
COc1ccc(N(C)C(=O)c2oc(=O)c3ccccc3c2-c2ccc(C)cc2)c(OC)c1 -5.19%
N#Cc1c(-n2ncnc2-c2ccccc2Cl)sc2c1CCCCC2 -3.98%
COc1ccc(N2CCN(C(=O)CCCCn3c(=O)[nH]c4ccsc4c3=O)CC2)cc1 6.63%
Cc1ccc(CNC(=O)CCc2c(C)c3cc4c(C)coc4cc3oc2=O)cc1 -11.9%
COC(=O)c1c(SCC(=O)Nc2ccccc2C(F)(F)F)[nH]c2ccc(Cl)cc2c1=O -3.39%
CC(C)c1ccc(CNC(=O)c2ccc(N3CCCC3)c(NC(=O)NCc3ccc(F)cc3)c2)cc1 0%
CCOC(=O)C1CCN(C(c2ccc(C)cc2)c2sc3nc(-c4ccco4)nn3c2O)CC1 (configuration not stated) 0.881%
CCOc1ccc(/C=C(\C#N)C(=O)Nc2sc3c(c2C(=O)OC)CCC3)cc1OC -2.16%
Cc1cccc(Nc2cc(C)nc3nc(-c4ccccc4)nn23)c1 -4.44%
CC1=C(C(=O)Nc2cccc(F)c2)C2(CCCCC2)OC1=O -0.0305%
COc1ccc(OC)c(NC(=O)c2cc3cccc(OC)c3oc2=O)c1 1.05%
CCCNC(=O)c1ccc(Cn2c(SCC(N)=O)nc3ccccc3c2=O)cc1 -0.451%
CCOc1ccccc1C(=O)N1CCc2cc(OC)c(OC)cc2C1COc1ccc(OC)cc1 (configuration not stated) 3.55%
Cc1ccc(-c2nc3cccc(C)n3c2Nc2ccc3c(c2)OCO3)o1 1.1%
COc1cccc(CNC(=O)Cn2ncn3c(cc4ccccc43)c2=O)c1 -1.99%
Cc1nn(-c2ccccc2)c(OC(=O)c2ccc(Cl)cc2)c1S(=O)(=O)c1ccccc1 1.49%
CCC(=O)Oc1c(Sc2ccc(C)cc2)c(C)nn1-c1ccccc1 -0.427%
COc1ccc(CNS(=O)(=O)c2cc3c(cc2Cl)NC(=O)CO3)cc1 -2.95%
O=C(c1cc(-c2ccc(Br)cc2)n[nH]1)N1CCN(S(=O)(=O)c2ccc(Cl)s2)CC1 -3.75%
CC(C)CC(=O)Nc1ccc2nc(SCC(=O)N3CCOCC3)sc2c1 -6.79%
COCCCn1c(SCC(=O)Nc2ccc(OC)cc2)nc2c(sc3ccccc32)c1=O -5.03%
O=C(CSc1nc(=O)n(CCN2CCOCC2)c2c1CCC2)Nc1ccc(F)cc1F -1.11%
CCOC(=O)c1cc(-c2ccc(F)cc2)n(CCC(=O)Nc2cc(OC)cc(OC)c2)c1C -6.09%
Cn1c(=O)c2c(nc(N3CCOCC3)n2Cc2ccccc2F)n(C)c1=O -2.26%
O=C(CSc1nc2ncccc2o1)Nc1ccc(Cl)cc1F -4.66%
O=C(Nc1ccccc1C(F)(F)F)C1CCN(S(=O)(=O)c2ccccc2)CC1 -0.986%
COc1cc(C2c3c(-c4cc(C)ccc4O)n[nH]c3C(=O)N2Cc2ccco2)cc(OC)c1OC (configuration not stated) 8.22%
COC(=O)CSc1nc2sc3c(c2c(=O)n1-c1ccccc1)C(C)CCC3 (configuration not stated) 0.881%
CC(C)Oc1ccc(C(=O)Nc2nnc3n2CCS3)cc1 -3.56%
O=C(Cn1cc(SCc2ccc(Cl)cc2)c2ccccc21)N1CCOCC1 -4.48%
COc1ccc(NC(=O)CSc2nc3ccccc3n2CC(=O)N(C)C2CCCCC2)cc1 5.15%
COc1ccc(NC(=O)c2cc(S(=O)(=O)N3CCCC(C)C3)cn2C)c(OC)c1 (configuration not stated) 1.42%
Cc1cc(Cl)ccc1NS(=O)(=O)c1c(C(=O)N2CCCCCC2)c(C)n(C)c1C 0%
Cc1ccc(C)c(Cn2c3ccccc3c3cnn(CC(=O)NC4CCCCCC4)c(=O)c32)c1 -0.334%
Cc1ccc(-c2c3c(=O)n(C)c(=O)n(C)c3c3c(-c4cccc(C)c4)nc4ccccc4n23)cc1 -7.39%
COC(=O)c1ccccc1NC(=O)c1ccc2c(c1)CCN2S(=O)(=O)c1ccc(Cl)cc1 2.04%
Cc1cc(C)c(S(=O)(=O)NCC2CCC(C(=O)NCCc3ccccc3)CC2)c(C)c1 (configuration not stated) -5.31%
O=c1n(Cc2ccccc2)nc2n1-c1cc(Cl)ccc1OC2 -38.9%
Cc1c2cnn(-c3ccccc3)c(=O)c2c(C)n1CCCC(=O)Nc1cccc(F)c1 -5.11%
Cc1c(Cl)cccc1NC(=O)CSc1nc(=O)[nH]c2c1CCC2 -0.0524%
O=S(=O)(c1cccc(Cl)c1)n1c(/C=C/c2ccccc2Cl)nc2ccccc21 -10.6%
COc1ccc(CN(Cc2ccco2)C(=O)COc2ccccc2Cl)cc1 -1.55%
COc1ccc(-c2cc(OC(=O)c3cccc(Cl)c3)c3c(C)oc(C)c3c(=O)c2)cc1OC -5.84%
CC(NS(=O)(=O)c1ccc2c(c1)CCN2C(=O)CCCC(=O)O)c1ccccc1 (configuration not stated) 1.2%
N#Cc1nc(/C=C/c2ccc(F)cc2)oc1N1CCCCCC1 2.33%
CCN(CC)c1ccc(NC(=O)Cn2nc3c(cc2=O)CCCC3)c(C)c1 -11.8%
CCc1c(C)sc(NC(=O)c2cc3nc(-c4ccc(OC)cc4)cc(C(F)(F)F)n3n2)c1C(=O)OC -10.6%
COc1cc(OC)cc(C(=O)N2CCN(C(=O)COc3ccc(C)cc3)CC2)c1 -7.24%
COc1cccc(-n2c(SCC(=O)Nc3ccc4c(c3)OCO4)nc3c([nH]c4ccccc43)c2=O)c1 3.5%
Cc1ccccc1NC(=O)CSc1nc(-c2cccs2)nc2cc(=O)[nH]n12 5.91%
COc1ccc(-n2nc(C(=O)Nc3cc(C)c(Cl)cc3OC)c3c4ccccc4n(C)c3c2=O)cc1 -3.18%
Cn1ccc2cc(S(=O)(=O)N3CCCC(C(=O)NCc4ccccc4F)C3)ccc21 (configuration not stated) -12%
Cc1ccccc1-c1nc(CNC(=O)NC2CCCCC2)c(C)o1 10.5%
CC(C)c1ccc(C2CC(=O)N3CN(C4CCCCC4)CSC3=C2C#N)cc1 (configuration not stated) -1.06%
COc1ccc(-n2ncc3c2ncn2nc(-c4ccc(OC)c(OC)c4)nc32)cc1 -1.01%
CC1=C(C(=O)Nc2ccccc2)C(c2ccc(Br)cc2)n2nc(CCCO)nc2N1 (configuration not stated) 0.457%
CCCc1cc(=O)[nH]c(Nc2cc(Cl)cc(Cl)c2)n1 -0.0488%
COc1ccccc1N1CCN(C(=O)c2nn(C)c3c2CS(=O)(=O)c2ccccc2-3)CC1 -1.03%
COc1cccc(CNC(=O)CN2C(=O)COc3ccc(S(=O)(=O)N4CCCCC4)cc32)c1 -4.41%
CCn1cc2nc(SCc3cc(C)ccc3C)n(Cc3ccc(Cl)cc3)c(=O)c2n1 0%
Cc1nn(Cc2ccc(F)cc2)c(C)c1NC(=O)c1noc2c1CCc1ccccc1-2 -2.77%
Cn1cc(S(=O)(=O)N2CCCC2)cc1C(=O)Nc1ccc(F)cc1F 7.13%
CCOC(=O)c1ccc(NC(=O)Cc2noc3ccc(C)cc23)cc1 3.44%
Cc1ccc(-c2nc3sc(CCNC(=O)c4ccc(F)c(F)c4)c(C)n3n2)cc1 -6.03%
CC1=C(C(=O)Nc2ccccc2Br)C2(CCC(C)CC2)OC1=O (configuration not stated) 1.72%
CCCCC12CN3CC(C)(CN(C1)C3c1ccc(OCc3ccccc3)cc1)C2=O (configuration not stated) 0.921%
Cc1ccc(CNC(=O)CCCCCn2c(=O)c3sccc3n(CC(=O)N3CCCCC3C)c2=O)cc1 (configuration not stated) 2.39%
O=C(C1CCN(S(=O)(=O)c2cccs2)CC1)N1CCN(c2ccccc2F)CC1 -10.1%
CCC(CC)C(=O)Nc1ccc(S(=O)(=O)N2CCC(c3nc4ccccc4s3)CC2)cc1 0.942%
Cc1nc(-c2ccc(S(=O)(=O)N3CCN(c4ccccc4F)CC3)cc2)co1 -1.87%
COc1ccc(C)cc1NC(=O)CN(C)S(=O)(=O)c1ccc2c(c1)c(=O)n(C)c(=O)n2C -0.187%
CCN(C(=O)Cn1c(C(=O)OC)cc2sccc21)c1cccc(C)c1 -6.29%

From PubChem BioAssay AID493208 (National Center for Advancing Translational Sciences (NCATS), 2011)
